# Data from paper PMC6919601, “Identification of Plasmodium dipeptidyl aminopeptidase allosteric inhibitors by high throughput screening” (PLoS ONE, 2019).
# The whole screen tested about 110,000 compounds, of which about 230 (0.21%) showed an effect of 50% or more. The list shows a part of the results.
# Target: DPAP1 (Plasmodium falciparum, UniProt Q8IIJ9)
# Test: primary screen, percent inhibition; read by cleavage of a fluorogenic dipeptide substrate; higher = more effect of the substance
# Design: species or system P. falciparum D10 trophozoite lysates; single well
# 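Note: 30 min substrate incubation versus DMSO and 10 µM JCP410 controls.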
# DPAP1, sequence (Q8IIJ9 whole entry, looked up): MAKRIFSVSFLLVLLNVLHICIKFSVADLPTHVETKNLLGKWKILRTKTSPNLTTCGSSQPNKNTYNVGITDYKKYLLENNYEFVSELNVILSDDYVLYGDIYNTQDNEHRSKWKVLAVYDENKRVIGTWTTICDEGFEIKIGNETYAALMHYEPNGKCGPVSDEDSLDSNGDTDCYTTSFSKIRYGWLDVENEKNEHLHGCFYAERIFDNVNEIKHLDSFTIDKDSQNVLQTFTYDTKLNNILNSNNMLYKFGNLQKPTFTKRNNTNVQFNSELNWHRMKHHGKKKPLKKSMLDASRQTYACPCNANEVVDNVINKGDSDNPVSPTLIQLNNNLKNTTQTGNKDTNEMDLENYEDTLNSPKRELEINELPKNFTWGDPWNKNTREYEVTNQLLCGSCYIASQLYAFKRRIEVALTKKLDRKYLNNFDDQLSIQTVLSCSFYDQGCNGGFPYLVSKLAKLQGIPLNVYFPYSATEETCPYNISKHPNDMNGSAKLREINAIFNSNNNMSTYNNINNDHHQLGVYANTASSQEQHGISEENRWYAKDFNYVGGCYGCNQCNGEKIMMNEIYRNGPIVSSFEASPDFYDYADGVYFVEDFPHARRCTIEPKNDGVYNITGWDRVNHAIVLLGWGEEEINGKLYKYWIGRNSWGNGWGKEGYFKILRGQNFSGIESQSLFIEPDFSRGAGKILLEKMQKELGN
row,Structure (SMILES),% Inhibition @ 10 uM [%]
1,CCCCC(=O)Nc1cc(-c2ccc(C)cc2)no1,-1.47
2,CCN(Cc1ccccc1)C(=O)Cn1ncc2c1-c1ccccc1OC2,-2.42
3,Cc1ccc(CNC(=O)C2CCCN2S(=O)(=O)c2ccc3[nH]c(-c4ccccc4)nc3c2)cc1 (stereo not shown),2.51
4,CC(C)Oc1ccccc1/C=C1\SC(N2CCOCC2)=NC1=O,-3.06
5,CCOc1ccc(C(=O)C2=C(O)C(=O)N(Cc3ccccc3)C2c2cccc(O)c2)cc1 (stereo not shown),1.93
6,Nn1c(COc2ccccc2)nnc1SCc1cc(O)nc2ccccc12,-4.35
7,CC1CC(C)CN(C(=O)CSc2nnc(Cc3ccccc3)o2)C1 (stereo not shown),8.63
8,COc1cccc(OCC(O)Cn2c(C)nc3ccccc32)c1 (stereo not shown),-9.45
9,O=S(=O)(NCc1ccccn1)c1ccc(Br)cc1Br,4.1
10,O=C(CSCCc1ccccn1)Nc1nccs1,-3.21
11,COc1ccc(CCC(=O)N(C)Cc2c(C)nn(C)c2C)cc1,6.51
12,COc1cc(C2C(C#N)=C(N)Oc3[nH]nc(-c4ccc(Cl)cc4)c32)cc(OC)c1OC (stereo not shown),5.18
13,Cc1ccc(Cl)cc1NC(=O)CN(c1cccc2ccccc12)S(C)(=O)=O,-6.77
14,Cc1ccc(OCCCCCN2CCNCC2)c(C(C)(C)C)c1,-10
15,COc1ccc(NCc2cccnc2)cc1,4.54
16,Cc1cc(CSc2ccccc2)ccc1NC(=O)CN1C(=O)c2ccccc2S1(=O)=O,-1.46
17,N#C/C(=C/c1ccc(Cl)cc1Cl)C(=O)Nc1ccc(Cl)cc1,1
18,c1ccc(OCCCCCCN2CCCCC2)cc1,3.74
19,N#Cc1ccc(Oc2ccc(Cl)cc2)cc1C#N,-2.18
20,COc1ccc(OC)c(N(CC(=O)Nc2cccc3ccccc23)S(C)(=O)=O)c1,0.909
21,COc1ccc(C2CC(c3ccc(Br)cc3)=NN2c2ccccc2Cl)cc1 (stereo not shown),-0.0267
22,C#CCOc1ccc(/C=C2/NC(=O)N(Cc3ccccc3F)C2=O)cc1OC,-6.37
23,COc1ccccc1-c1cc(-c2ccccc2)nc(SCC(N)=O)c1C#N,-5.62
24,COc1ccc(-c2nc3scc(CCNC(=O)c4ccc(Br)o4)n3n2)cc1,0.00353
25,COc1ccc(C(=O)Nc2cccc(C)c2)cc1,-3.04
26,O=c1[nH]c(=O)n(CCc2ccccc2)c2nc[nH]c12,1.91
27,Cc1ccc(C(=O)C2=C(O)C(=O)N(CCCn3ccnc3)C2c2ccc(F)cc2)cc1 (stereo not shown),3.35
28,Cc1ccc(-n2nc3c(=O)n(CCCC(=O)NC4CCCc5ccccc54)nc(C)c3c2C)cc1 (stereo not shown),3.33
